Assay results taken from the supplement of paper PMC4166925.
± gives the standard deviation of the averaged measurements. Over roughly 33,000 sequences, “E-score (dimensionless, -0.5 to 0.5)” has its median near -0.049; the highest 2% begin near 0.37. The list shows a part of the results.

system: T1, PmTbr T-box DNA-binding domain (GST fusion); experiment: PBM E-score of 8-mer (E-score (dimensionless, -0.5 to 0.5)); Tbr is Tbrain of the sea star Patiria miniata (Pm) or the sea urchin Strongylocentrotus purpuratus (Sp); higher = stronger binding preference; most listed sequences are background and not binding sites; details: the construct has about 5 more residues each side
T1 sequence: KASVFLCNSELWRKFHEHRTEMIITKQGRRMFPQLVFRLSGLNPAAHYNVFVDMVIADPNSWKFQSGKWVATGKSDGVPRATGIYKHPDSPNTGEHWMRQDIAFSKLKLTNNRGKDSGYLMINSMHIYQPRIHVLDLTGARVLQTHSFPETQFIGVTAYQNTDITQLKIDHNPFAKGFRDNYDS
Procedure, shortened: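 Each ungapped 8-mer received an enrichment E-score from the Universal PBM Analysis Suite, averaged over duplicate arrays. The proteins were Tbr T-box DNA-binding domains, covering the whole T-box plus about five flanking residues, fused to GST and expressed in BL21 E. coli at 20 °C before glutathione affinity purification. Universal Agilent oligonucleotide arrays were made double-stranded by primer extension and incubated with 200 nM protein in PBS (pH 7.5). The arrays were then scanned and quantified, and every 8-mer was scored from probe intensities.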

Sequence	PBM E-score of 8-mer
AGTGCGAG	0.405 ± 0.021
TCGTCTAA	-0.131 ± 0.027
CCGGGATC	-0.165 ± 0.025
ATCGTGGG	0.00341 ± 0.014
AGCCCGAT	-0.237 ± 0.035
TGTCCCAA	-0.0722 ± 0.014
ATAGTCTG	-0.119 ± 0.065
CGTATCTC	-0.17 ± 0.0074
AGCGGTAA	-0.198 ± 0.013
AGTTAGCA	0.32 ± 0.023
ACTATACG	-0.179 ± 0.053
ATAGGCAC	-0.0213 ± 0.017
ACAATAGG	-0.0435 ± 0.0018
ACCAGAGG	-0.00261 ± 0.038
AATGCATA	-0.2524 ± 0.0016
AATAAAGA	-0.265 ± 0.022
CACAGCCC	-0.112 ± 0.014
GTGAAGGA	0.0566 ± 0.032
CAAACCGA	-0.0313 ± 0.06
ATGAACAC	-0.0187 ± 0.0075
ACGAAAAT	-0.0398 ± 0.04
GCAAAGAA	-0.0862 ± 0.0042

Sequence	PBM E-score of 8-mer
AAAAATTT	-0.141 ± 0.23
AGGGCAAG	-0.2 ± 0.018
ATACGATG	0.0881 ± 0.0098
GCTTCGCA	0.308 ± 0.01
AACAGGGG	-0.142 ± 0.056
GAGCGAGC	-0.137 ± 0.0078
ACGTATGG	-0.157 ± 0.062
ACTTCAAG	-0.0859 ± 0.024
ACTGTCTA	-0.0335 ± 0.055
ACTCTCAG	0.0216 ± 0.0043
GACAAGCC	0.0605 ± 0.023
ACCCTGCT	-0.0648 ± 0.025
CGTCGACA	0.26 ± 0.031
CATACAAG	-0.118 ± 0.036
GGTCAGAA	-0.0528 ± 0.011
CCGGAAAC	-0.0846 ± 0.0042
GGAATTAA	-0.233 ± 0.027
CCATGAGC	-0.138 ± 0.16
CTCCGAAC	-0.0286 ± 0.028
ATGTGTTG	0.398 ± 0.008
AACCCGCA	-0.0105 ± 0.021
AGGCTTGG	-0.2 ± 0.011

Sequence	PBM E-score of 8-mer
GAGTCGAC	0.172 ± 0.046
AGAAAGTC	-0.162 ± 0.021
ATAAATCG	-0.135 ± 0.0078
ACATAGTC	-0.269 ± 0.02
ACCTGTGC	0.0647 ± 0.0069
GGTTGCTA	0.0637 ± 0.05
CGAGTGAG	0.202 ± 0.017
GTCTTCGA	-0.195 ± 0.043
AAGAGTGA	0.215 ± 0.044
TCTCCAGA	-0.0379 ± 0.022
AGAACACT	0.133 ± 0.04
GCGTCATA	0.141 ± 0.0021
CTACCAAA	-0.0753 ± 0.067
ATAGCGAG	0.19 ± 0.0089
GACAGGGC	-0.229 ± 0.021
GACTGGGA	-0.145 ± 0.039
ACTCAGCA	-0.151 ± 0.053
CTCGTCGC	0.113 ± 0.061
AGGTCAAA	-0.262 ± 0.028
CTCCCAAC	-0.0412 ± 0.0027
GTCGGATA	-0.0948 ± 0.041
ACTATATC	-0.0173 ± 0.047

Sequence	PBM E-score of 8-mer
ATGGAGAG	-0.202 ± 0.042
CGAGGCCA	-0.0794 ± 0.015
CATAGCTA	-0.279 ± 0.051
AATCTCCT	-0.175 ± 0.11
AGGCGACG	0.268 ± 0.0026
GGGGACCC	0.003 ± 0.018
CCCGTGAC	0.103 ± 0.042
TCAGTCAA	-0.209 ± 0.052
GATTGCGC	0.0372 ± 0.085
CGCGGAAC	-0.0285 ± 0.035
GGCGACAA	0.3812 ± 0.0024
ACAGCCAA	-0.0687 ± 0.018
CAGGGCGC	0.157 ± 0.1
AGTGTAAG	0.218 ± 0.015
CCCTAAGG	-0.197 ± 0.023
ACAAGGGC	-0.132 ± 0.063
AGCGGAGA	0.0469 ± 0.037
ATTTTGGC	-0.0578 ± 0.05
ACAGGCCA	-0.0816 ± 0.047
ACTGGTTA	-0.0355 ± 0.092
